“And” between values parts separate entries of the source, which are not always exact repeats. Equal values may be shown once. In all, about 340,000 compounds went through this assay and about 12,000 (3.5%) were called active. The shares of active, inactive and inconclusive entries below differ from those in the screen. The call rests on the fitted dose curve; in most records, active means well fitted inhibition curve with a large enough effect; inconclusive means small, poorly fitted or top-dose-only effect, or another doubt; inactive means no such curve, though single readings can be large or run the other way. Where the call is inconclusive, the potency comes from a doubtful curve fit.
Test: qHTS Assay for Inhibitors of Hepatitis C Virus (HCV)
Settings: Huh7.5.1 HCVcc-Cre (HCVcc is cell-culture hepatitis C virus) infection, luciferase reporter, 44 h; activity change, negative = inhibition: at 41.8 µM (top of the series) unless noted
Procedure, shortened: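 Reporter virus HCVcc-Cre (~0.5 moi) infects cells exposed to compound; seeding density 1,000 cells/well with 4 h settling beforehand. Luminescence, 15 sec read, taken 44 h post-infection following a 15 min RT substrate incubation.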
On the % scale 0 is the no-effect control and ±100 the full control effect; potency means the concentration at half of the fitted maximal effect; tags describe the fitted curve by direction and shape.

Row | Structure (SMILES) | activity change, negative = inhibition | Potency
1 | COC(=O)CSc1nnc(-c2ccncc2)o1 | inactive: 11.2% | –
2 | N#Cc1nc(-c2cccc3ccccc23)oc1NCCN1CCCCC1 | – | active: 11.2 µM
3 | COc1ccc(CNC(=O)C(CCSC)NS(=O)(=O)c2ccccc2F)cc1 (stereo unspecified) | inactive: -16.8% | –
4 | Cc1nc(NCCCN2CCOCC2)c2cnn(-c3ccccc3)c2n1 | inactive: -10% | –
5 | COc1ccc(S(=O)(=O)N2CCN(C(=O)CN3C(=O)NC(C)(c4ccc5ccccc5c4)C3=O)CC2)cc1 (stereo unspecified) | – | inconclusive: 31.6 µM [inhibitor, single point]
6 | O=C(Cc1ccccc1)Nc1ccc(-c2nnc(-c3ccco3)o2)cc1 | – | inconclusive: 5.62 µM [inhibitor, single point]
7 | O=C(Nc1cccc(-c2cn3cccnc3n2)c1)c1ccc(Br)o1 | – | inconclusive: 7.08 µM [inhibitor, partial curve]
8 | CCCC(=O)NC(c1cccs1)c1cc(Cl)c2cccnc2c1O (stereo unspecified) | – | active: 3.16 µM
9 | O=C(NNc1c2ccccc2nc2ccccc12)c1ccccc1O | – | active: 8.91 µM
10 | Cc1n[nH]c(C)c1CCNC(=O)C1CCC(=O)N(Cc2ccccc2F)C1 (stereo unspecified) | inactive: 27% | –
11 | COc1cc(-c2cccc([C@H]3[C@@H]4C=CC[C@@H](C)[C@@H]4C(=O)N3Cc3ccccc3)c2)cc(OC)c1OC | – | active: 10 µM
12 | COc1ccc(C)cc1S(=O)(=O)N1CCN(C(=O)c2ncoc2-c2ccc(F)cc2)CC1 | – | inconclusive: 12.6 µM [inhibitor, single point]
13 | O=C(CCC(=O)N1CCN(c2ccc(F)cc2)CC1)c1ccccc1 | inactive: 6.02% | –
14 | COCCn1c(C)cc(C(=O)COC(=O)/C=C/c2ccc(OC)cc2OC)c1C | – | inconclusive: 10 µM [inhibitor, partial curve]
15 | COC(=O)CCCn1c(C)cc(C(=O)CCl)c1C | – | inconclusive: 10 µM [inhibitor, partial curve]
16 | O=C(N/N=C/c1cccc(O)c1)c1ccc(COc2ccccc2Br)cc1 | – | inconclusive: 14.1 µM [inhibitor, single point]
17 | COc1ccc(N2CCN(C(=O)C3CCCN(c4ncnc5c4nc4n5CCCCC4)C3)CC2)cc1 (stereo unspecified) | – | inconclusive: 12.6 µM [inhibitor, single point]
18 | Cc1ccccc1NC(=O)COC(=O)c1n[nH]c(=O)c2ccccc12 | inactive: -3.88% | –
19 | C/C(=N\Nc1ccc([N+](=O)[O-])cc1[N+](=O)[O-])C(C)C(C)C (stereo unspecified) | – | inconclusive: 8.91 µM [inhibitor, partial curve]
20 | CCOc1ccccc1NC(=O)CSc1nc2cccnc2n1C | – | inconclusive: 10 µM [inhibitor, partial curve]
21 | c1ccc(-c2ccc(-c3ccccn3)s2)nc1 | – | inconclusive: 31.6 µM [inhibitor, single point]
22 | CCN=C1S/C(=C\c2cn(CC(=O)NCc3ccco3)c3ccccc23)C(=O)N1CC | – | inconclusive: 11.2 µM [inhibitor, partial curve]
23 | O=C(NCCCN1CCOCC1)C(=O)NCC1OCCN1S(=O)(=O)c1ccc(F)cc1 (stereo unspecified) | inactive: 23.8% | –
24 | Cc1cc(/C=C(/C#N)c2nc3ccccc3[nH]2)c(C)n1-c1cccc([N+](=O)[O-])c1 | – | inconclusive: 0.316 µM [inhibitor, full curve, poor fit]

Row | Structure (SMILES) | activity change, negative = inhibition | Potency
25 | O=C(c1ccc(COc2ccc(Br)cc2)o1)N1N=C(C(F)F)CC1(O)C(F)F (stereo unspecified) | – | inconclusive: 31.6 µM [inhibitor, single point]
26 | CCOCN(C(=O)Cn1c(COC)nc2ccccc21)c1c(C)cccc1CC | inactive: 12.1% | –
27 | NC(=O)C1(Nc2ccc([N+](=O)[O-])cc2)CCCC1 | inactive: -3% | –
28 | COc1ccc2nc(NC(=O)CCc3ccc(OC)c(OC)c3)sc2c1 | – | inconclusive: 12.6 µM [inhibitor, partial curve]
29 | Cc1ccc(Cn2c(SCCN3CCOCC3)nc3c2c(=O)n(C)c(=O)n3C)cc1 | – | inconclusive: 35.5 µM [inhibitor, partial curve, poor fit]
30 | CCOC(=O)Oc1c(OC)cc(C(=O)O[C@@H]2C[C@@H]3CN4CCc5c([nH]c6cc(OC)ccc56)[C@H]4C[C@@H]3[C@H](C(=O)OC)[C@H]2OC)cc1OC | – | active: 5.62 µM
31 | Cn1c(SCC(=O)N/N=C/C=C/c2ccccc2[N+](=O)[O-])nc2ccccc21 | – | inconclusive: 31.6 µM [inhibitor, single point]
32 | CCOC(=O)c1c(NC(=O)Cn2nc(C(F)F)cc2C(F)F)sc(C)c1C | – | inconclusive: 7.94 µM [inhibitor, partial curve, poor fit]
33 | Cc1ccc(C)c(CSC2=NCCN2C(=O)c2cccs2)c1 | – | inconclusive: 31.6 µM [inhibitor, single point]
34 | O=C(Nc1cccc(S(=O)(=O)N2CCCC2)c1)c1ccco1 | – | inconclusive: 31.6 µM [inhibitor, single point]
35 | CC(C)CCc1noc(CN2CCN(CC(=O)NC(C)C)CC2)n1 | – | inconclusive: 31.6 µM [inhibitor, single point]
36 | O=C(c1ccco1)N(Cc1ccco1)c1ccc(O)cc1 | inactive: -2.24% | –
37 | COc1ccccc1NC(=O)Nc1nc(CC(=O)N2CCN(c3ccccc3OC)CC2)cs1 | – | active: 10 µM
38 | Cc1ccc(-c2nc(CS(=O)(=O)CC(=O)Nc3cc(F)ccc3F)c(C)o2)cc1 | – | inconclusive: 14.1 µM [inhibitor, single point]
39 | N#Cc1cc2c(nc1SCC(=O)Nc1ccc(Cl)cc1)C1CCN2CC1 | – | active: 2.82 µM
40 | O=C1CC(N2CCCCCC2)C(=O)N1c1ccc2c(c1)OCO2 (stereo unspecified) | inactive: -1.98% | –
41 | CC(=O)c1ccc(NC(=O)CSc2nnc(-c3ccoc3C)n2Cc2ccccc2)cc1 | – | inconclusive: 11.2 µM [inhibitor, single point] and inconclusive: 2.51 µM [inhibitor, full curve, poor fit]
42 | CCOC(=O)c1cc2n(c1/N=C/N(C)C)-c1ccccc1C2=O | – | inconclusive: 1.78 µM [inhibitor, full curve]
43 | CCOc1ccccc1C(=O)Nc1nnc(CC)s1 | – | active: 11.2 µM
44 | Cc1c(NC(=O)C(C)OC(=O)c2ccc([N+](=O)[O-])s2)c(=O)n(-c2ccccc2)n1C (stereo unspecified) | inactive: -18.4% | –
45 | NC(=O)C1=C(N=C2CCCCC2)CCCC1 | inactive: 4.03% | –
46 | CCOC(=O)c1cnc2ccc(Br)cc2c1NCCO | – | inconclusive: 4.47 µM [inhibitor, full curve]
47 | CCCCNc1c(-c2ccc(OC)c(SC(C)CC)c2)nc2cc(C)ccn12 (stereo unspecified) | – | active: 7.08 µM
48 | Cc1oc(-c2ccccc2Cl)nc1CN(Cc1ccccn1)C[C@@H]1CCC(=O)N1 | inactive: -4.02% | –

Row | Structure (SMILES) | activity change, negative = inhibition | Potency
49 | CCOC(=O)N1CCN(S(=O)(=O)c2ccc(OCC)cc2)CC1 | – | inconclusive: 22.4 µM [inhibitor, single point]
50 | OC1CCN(c2c3c(nc4cc(-c5cccc(F)c5)nn24)CCCC3)CC1 | – | inconclusive: 2.51 µM [inhibitor, full curve]
51 | CC(=O)Nc1ccc(NC(=O)c2sc3nc4c(c(-c5ccc(C)cc5)c3c2N)CCC4)cc1 | – | inconclusive: 1 µM [inhibitor, full curve]
52 | O=C(Nc1ccc(Oc2ccc(Cl)cc2)c(Cl)c1)c1cc(I)cc(I)c1O | – | active: 31.6 µM
53 | Cc1c(C(=O)Nc2ccc(Cc3ccncc3)cc2)cccc1[N+](=O)[O-] | inactive: -13.6% | –
54 | COc1ccc(N2CCN(C(=O)CSc3nc4[nH]ncc4c(=O)n3-c3cccc4ccccc34)CC2)cc1 | – | inconclusive: 22.4 µM [inhibitor, single point]
55 | CCc1nnc(SCC(=O)NC2CCCCC2)nc1CC | – | inconclusive: 22.4 µM [inhibitor, single point]
56 | CCOC(=O)c1ccccc1NC(=O)COC(=O)C1CC(=O)N(CCc2ccccc2)C1 (stereo unspecified) | inactive: 2.53% | –
57 | O=C(OCc1nnc(-c2ccc([N+](=O)[O-])cc2)o1)c1ccc(F)c(S(=O)(=O)N2CCOCC2)c1 | inactive: -3.69% | –
58 | COCCCNC(=S)N1CCCN(c2nc3cc(C)c(C)cc3cc2C#N)CC1 | – | active: 22.4 µM
59 | COc1cccc(CN=C2Nc3ccccc3CS2)c1 | inactive: 1.35% | –
60 | Cc1cc(C)n2nc(SCc3nnc(SCc4ccccc4C)s3)nc2n1 | – | inconclusive: 12.6 µM [inhibitor, single point]
61 | CN1CCN(c2nc(-c3ccc(Br)cc3)nnc2-c2ccccc2)CC1 | – | inconclusive: 11.2 µM [inhibitor, partial curve]
62 | COc1ccc(OC(=O)N2C/C(=C/c3ccccc3)C(=O)/C(=C\c3ccccc3)C2)cc1 | – | inconclusive: 31.6 µM [inhibitor, single point]
63 | CCc1n[nH]c(=S)n1/N=C/c1c[nH]c2ccc(Br)cc12 | – | inconclusive: 31.6 µM [inhibitor, single point]
64 | CCOc1ccc2c(c1)c(C(C)=O)c(C)n2-c1ccccc1 | – | active: 11.2 µM
65 | CCc1ccc2c(c1)cc(C)c1nnc(SCC(=O)Nc3cc(OC)c(OC)cc3C(=O)O)n12 | inactive: 1.12% | –
66 | CCc1[nH]nc(C(=O)N2CCCC(C(=O)c3cccc(C(F)(F)F)c3)C2)c1C (stereo unspecified) | – | inconclusive: 7.94 µM [inhibitor, partial curve]
67 | O=C(N/N=C/c1ccc(N2CCOCC2)s1)c1ccccc1Cl | – | inconclusive: 22.4 µM [inhibitor, single point]
68 | CCN(CC)c1ccc(/C=C(/C#N)C(=O)NCc2ccccc2)o1 | – | inconclusive: 12.6 µM [inhibitor, partial curve]
69 | CCOc1cc(/C=N/NC(=O)c2cccnc2)ccc1OCC(=O)N1CCOCC1 | inactive: 5.37% | –
70 | CC(c1nccs1)N(C)c1nc2nonc2nc1NC1CC1 (stereo unspecified) | inactive: 1.8% | –
71 | COc1ccc(N=C2SCC(c3ccccc3)=NN2C)cc1 | – | inconclusive: 31.6 µM [inhibitor, single point]

Reference: PubChem BioAssay AID651820 (National Center for Advancing Translational Sciences (NCATS), 2012)
